Assay results: PubChem BioAssay AID1745853 (National Center for Advancing Translational Sciences (NCATS), 2022)
The other results are listed elsewhere or left out. These are further read-outs of the screen, such as a control signal, another cell line or another target. No call is given for them.

How the values were obtained:
Assay in all cases: Primary Screen for Target Class Profiling of Small Molecule Inhibitors of Methyltransferases
[1] = biological target: Glycine N-methyltransferase (Homo sapiens) (UniProt Q14749); details: purified enzyme, MTase-Glo SAH luminescence; measured here: GNMT inhibition; at 40 µM; stronger effect = lower value
Method in brief: (§1)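 Each enzyme was reacted with SAM and its substrate, with compounds tested once at 40 uM; SAH formed was read by MTase-Glo luminescence.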

[2] = biological target: Guanidinoacetate N-methyltransferase (Homo sapiens) (UniProt Q14353); details: purified enzyme, MTase-Glo SAH luminescence; measured here: GAMT inhibition; at 40 µM; stronger effect = lower value
Method in brief: as §1

[3] = biological target: Histamine N-methyltransferase (Homo sapiens) (UniProt P50135); details: purified enzyme, MTase-Glo SAH luminescence; measured here: HNMT inhibition; at 40 µM; stronger effect = lower value
Method in brief: as §1

[4] = biological target: Nicotinamide N-methyltransferase (Homo sapiens) (UniProt P40261); details: purified enzyme, MTase-Glo SAH luminescence; measured here: NNMT inhibition; at 40 µM; stronger effect = lower value
Method in brief: as §1

[5] = biological target: Phenylethanolamine N-methyltransferase (Homo sapiens) (UniProt P11086); details: purified enzyme, MTase-Glo SAH luminescence; measured here: PNMT inhibition; at 40 µM; stronger effect = lower value
Method in brief: as §1
% is scaled to controls: 0 for no effect and ±100 for the full control effect.

Compound	activity change, negative = inhibition [1] [%]	activity change, negative = inhibition [2] [%]	activity change, negative = inhibition [3] [%]	activity change, negative = inhibition [4] [%]	activity change, negative = inhibition [5] [%]
CC1CCC(NC(=O)C2(C)Cc3ccccc3C(=O)N2Cc2ccccc2)CC1 (centres undefined)	-6.25	0	1.52	0.098	-5.01
CCOC(=O)c1cc2n(n1)CC(C)(C(=O)NC1CCCCC1)N(c1ccc(F)cc1F)C2=O (centres undefined)	-5.14	-0.371	-2.77	-8.88	-6.64
O=C(Nc1ccc(Br)cc1F)N1CCn2cccc2C1Cc1ccccc1 (centres undefined)	10.5	0	7.02	0.226	1.95
COc1cccc(CNc2nc3c(-c4cccc(C)c4)nnn3c3ccccc23)c1	-4	2	2.08	-12.9	-5
O=c1[nH]c2ccc(S(=O)(=O)Nc3ccc(F)c(Cl)c3)cc2[nH]1	3.2	1.16	6.84	-1.73	-9.59
CC1CCCCC1NC(=O)C1(C)Cn2c(nc3ccccc32)C(=O)N1Cc1ccc(Cl)cc1 (centres undefined)	-1.95	4.85	2.68	-15.6	-4.87
COc1cccc(N2CCN(c3ccc4nnc(CCC(=O)NCCC(C)C)n4n3)CC2)c1	7.36	0	7.87	5.14	5.62
Cc1nn(C)c(C)c1CCCN(C)C(=O)c1ccc2c(c1)C(O)CCCCCN2C (centres undefined)	-6.82	-7.93	-4.72	-18.3	-3.92
Cc1cc(S(=O)(=O)N2CCC(n3c(=O)[nH]c4ccccc43)CC2)ccc1-n1cnnn1	1.25	0	3.16	9.13	1.22
O=C(NCC1CN(S(=O)(=O)c2cccnc2)CC12CCOCC2)N1CCCC1 (centres undefined)	-2.27	-5.84	0.893	-9.27	-5.06
CC(C)Cn1c(=O)c2ccc(C(=O)NC(C)C)cc2n2c(SCc3ccc(Cl)cc3)nnc12	1.48	2.06	-0.783	1.34	0.159
COc1cc2ncnc(Nc3ccc(F)c(Cl)c3)c2cc1NC(=O)/C=C/CN1CCCCC1	-41.7	-18.3	-57.1	-30.7	-41.9
CCOC(=O)c1cc2n(n1)CC(C)(C(=O)NCc1ccc(C)cc1)N(c1ccc3c(c1)OCO3)C2=O (centres undefined)	0.668	1.7	3.24	-2.51	-2.21
Nc1nccc(-c2ccc3noc(-c4ccc(Cl)cc4)c3c2)n1	-36.2		3.23	12.4	35.9
COCC(=O)N[C@H]1C[C@@H](CO)N(Cc2ccsc2)C1	-5.56	-6.34	-3.38	-9.78	-6.92
